Measured values published in PMC5589798, “Alpha subunit-dependent glycine receptor clustering and regulation of synaptic receptor numbers” (Scientific Reports, 2017).

Experiments:
untagged GlyRα1 = target: T1, untagged GlyRα1 (UniProt P07727 29-457); test: PALM-based single molecule counting; fixed transfected COS-7 cells; bursts of Dendra2 detections counted in 120 nm clusters, binomial fit; Dendra2-GlyR subunits alone or with untagged subunits; conditions: partners not purified
T1 construct: glycine receptor alpha-1 subunit, untagged; also called untagged α1 subunits; non-fluorescent subunits; source: COS-7, transfected, in cells
T1 sequence (looked up): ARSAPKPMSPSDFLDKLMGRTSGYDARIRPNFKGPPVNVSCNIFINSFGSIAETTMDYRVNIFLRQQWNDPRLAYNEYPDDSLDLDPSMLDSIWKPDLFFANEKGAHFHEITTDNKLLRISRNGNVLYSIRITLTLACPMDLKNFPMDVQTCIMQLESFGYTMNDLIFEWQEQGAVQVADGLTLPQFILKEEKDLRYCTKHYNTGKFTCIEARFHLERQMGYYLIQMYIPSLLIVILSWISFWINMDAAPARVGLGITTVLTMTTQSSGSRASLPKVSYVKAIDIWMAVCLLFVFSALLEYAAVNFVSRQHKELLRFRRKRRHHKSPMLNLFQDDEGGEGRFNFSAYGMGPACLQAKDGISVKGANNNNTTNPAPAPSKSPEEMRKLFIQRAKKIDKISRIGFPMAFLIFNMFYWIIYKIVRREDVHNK

untagged GlyRα3 = target: T2, untagged GlyRα3 (UniProt O75311 34-464); test: as above; conditions: partners not purified
T2 construct: glycine receptor alpha-3 subunit, untagged; also called untagged α subunits; non-fluorescent subunits; source: COS-7, transfected, in cells
T2 sequence (looked up): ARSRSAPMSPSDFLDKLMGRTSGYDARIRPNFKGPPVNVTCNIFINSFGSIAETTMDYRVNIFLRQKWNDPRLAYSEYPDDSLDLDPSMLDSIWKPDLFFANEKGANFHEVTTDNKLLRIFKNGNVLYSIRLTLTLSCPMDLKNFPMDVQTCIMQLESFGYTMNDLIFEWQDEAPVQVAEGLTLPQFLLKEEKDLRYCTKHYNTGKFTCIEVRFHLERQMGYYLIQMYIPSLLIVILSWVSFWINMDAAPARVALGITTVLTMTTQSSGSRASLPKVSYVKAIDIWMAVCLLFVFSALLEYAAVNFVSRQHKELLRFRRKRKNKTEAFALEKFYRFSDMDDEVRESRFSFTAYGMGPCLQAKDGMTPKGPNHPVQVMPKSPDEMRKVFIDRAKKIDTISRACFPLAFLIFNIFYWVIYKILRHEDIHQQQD

B1: Dendra2-GlyRβ (FU-SP-myc-Dendra2-GlyRβ) (receptor)
chain: not shown
notes: human glycine receptor beta subunit; source: COS-7, transfected (FuGENE 6), in cells; spinal cord neurons, lentivirus infected, in cells; not shown: myc, N-terminal, kept; Dendra2, N-terminal, kept
Q: For B1, which “stoichiometry N” value (untagged GlyRα1) is on record?
A: 2 β subunits per complex

Q: And the “stoichiometry N” value (untagged GlyRα3)?
A: 2 β subunits per complex
